# Assay results taken from US20260008835A1 (SHANGHAI REGENELEAD THERAPIES, published 2026).
# T1: Human VEGF-A protein (human, UniProt P15692-4 27-191, limits assumed)
# T1 sequence (looked up): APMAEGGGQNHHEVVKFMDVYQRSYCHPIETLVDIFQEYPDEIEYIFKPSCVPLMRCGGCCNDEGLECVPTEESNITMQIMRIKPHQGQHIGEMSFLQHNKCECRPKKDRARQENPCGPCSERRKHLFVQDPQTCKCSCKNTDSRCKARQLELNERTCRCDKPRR
# B1: PR1010 (R1D2-R2D3-linker-R2D2-R2D3-Fc) (Fc fusion)
# chain: SDTGRPFVEMYSEIPEIIHMTEGRELVIPCRVTSPNITVTLKKFPLDTLIPDGKRIIWDSRKGFIISNATYKEIGLLTCEATVNGHLYKTNYLTHRQTNTIIDVVLSPSHGIELSVGEKLVLNCTARTELNVGIDFNWEYPSSKHQHKKLVNRDLKTQSGSEMKKFLSTLTIDGVTRSDQGLYTCAASSGLMTKKNSTFVRVHEKGGGGSSPFIASVSDQHGVVYITENKNKTVVIPCLGSISNLNVSLCARYPEKRFVPDGNRISWDSKKGFTIPSYMISYAGMVFCEAKINDESYQSIMYIVVVVGYRIYDVVLSPSHGIELSVGEKLVLNCTARTELNVGIDFNWEYPSSKHQHKKLVNRDLKTQSGSEMKKFLSTLTIDGVTRSDQGLYTCAASSGLMTKKNSTFVRVHEK[human IgG1 Fc with changes not printed]
# B2: PR1130 (R1D2-R2D3-linker-R2D2-R2D3 (M314Q)-Fc) (Fc fusion)
# chain: SDTGRPFVEMYSEIPEIIHMTEGRELVIPCRVTSPNITVTLKKFPLDTLIPDGKRIIWDSRKGFIISNATYKEIGLLTCEATVNGHLYKTNYLTHRQTNTIIDVVLSPSHGIELSVGEKLVLNCTARTELNVGIDFNWEYPSSKHQHKKLVNRDLKTQSGSEMKKFLSTLTIDGVTRSDQGLYTCAASSGLMTKKNSTFVRVHEKGGGGSSPFIASVSDQHGVVYITENKNKTVVIPCLGSISNLNVSLCARYPEKRFVPDGNRISWDSKKGFTIPSYMISYAGMVFCEAKINDESYQSIMYIVVVVGYRIYDVVLSPSHGIELSVGEKLVLNCTARTELNVGIDFNWEYPSSKHQHKKLVNRDLKTQSGSEMKKFLSTLTIDGVTRSDQGLYTCAASSGLQTKKNSTFVRVHEK[human IgG1 Fc with changes not printed]
# B3: PR1101 (R1D2-R2D3-linker-R2D2 (M197Y)-R2D3-Fc) (Fc fusion)
# chain: SDTGRPFVEMYSEIPEIIHMTEGRELVIPCRVTSPNITVTLKKFPLDTLIPDGKRIIWDSRKGFIISNATYKEIGLLTCEATVNGHLYKTNYLTHRQTNTIIDVVLSPSHGIELSVGEKLVLNCTARTELNVGIDFNWEYPSSKHQHKKLVNRDLKTQSGSEMKKFLSTLTIDGVTRSDQGLYTCAASSGLMTKKNSTFVRVHEKGGGGSSPFIASVSDQHGVVYITENKNKTVVIPCLGSISNLNVSLCARYPEKRFVPDGNRISWDSKKGFTIPSYMISYAGYVFCEAKINDESYQSIMYIVVVVGYRIYDVVLSPSHGIELSVGEKLVLNCTARTELNVGIDFNWEYPSSKHQHKKLVNRDLKTQSGSEMKKFLSTLTIDGVTRSDQGLYTCAASSGLMTKKNSTFVRVHEK[human IgG1 Fc with changes not printed]
# B4: PR1114 (R1D2-R2D3-linker-R2D2-R2D3 (N274I)-Fc) (Fc fusion)
# chain: SDTGRPFVEMYSEIPEIIHMTEGRELVIPCRVTSPNITVTLKKFPLDTLIPDGKRIIWDSRKGFIISNATYKEIGLLTCEATVNGHLYKTNYLTHRQTNTIIDVVLSPSHGIELSVGEKLVLNCTARTELNVGIDFNWEYPSSKHQHKKLVNRDLKTQSGSEMKKFLSTLTIDGVTRSDQGLYTCAASSGLMTKKNSTFVRVHEKGGGGSSPFIASVSDQHGVVYITENKNKTVVIPCLGSISNLNVSLCARYPEKRFVPDGNRISWDSKKGFTIPSYMISYAGMVFCEAKINDESYQSIMYIVVVVGYRIYDVVLSPSHGIELSVGEKLVLNCTARTELNVGIDFNWEYPSSKHQHKKLVIRDLKTQSGSEMKKFLSTLTIDGVTRSDQGLYTCAASSGLMTKKNSTFVRVHEK[human IgG1 Fc with changes not printed]
# B5: PR1135 (R1D2-R2D3-linker-R2D2(Y221S/R222K)-R2D3-Fc) (Fc fusion)
# chain: SDTGRPFVEMYSEIPEIIHMTEGRELVIPCRVTSPNITVTLKKFPLDTLIPDGKRIIWDSRKGFIISNATYKEIGLLTCEATVNGHLYKTNYLTHRQTNTIIDVVLSPSHGIELSVGEKLVLNCTARTELNVGIDFNWEYPSSKHQHKKLVNRDLKTQSGSEMKKFLSTLTIDGVTRSDQGLYTCAASSGLMTKKNSTFVRVHEKGGGGSSPFIASVSDQHGVVYITENKNKTVVIPCLGSISNLNVSLCARYPEKRFVPDGNRISWDSKKGFTIPSYMISYAGMVFCEAKINDESYQSIMYIVVVVGSKIYDVVLSPSHGIELSVGEKLVLNCTARTELNVGIDFNWEYPSSKHQHKKLVNRDLKTQSGSEMKKFLSTLTIDGVTRSDQGLYTCAASSGLMTKKNSTFVRVHEK[human IgG1 Fc with changes not printed]
# B6: PR1136 (R1D2-R2D3-linker-R2D2-R2D3 (L313R)-Fc) (Fc fusion)
# chain: SDTGRPFVEMYSEIPEIIHMTEGRELVIPCRVTSPNITVTLKKFPLDTLIPDGKRIIWDSRKGFIISNATYKEIGLLTCEATVNGHLYKTNYLTHRQTNTIIDVVLSPSHGIELSVGEKLVLNCTARTELNVGIDFNWEYPSSKHQHKKLVNRDLKTQSGSEMKKFLSTLTIDGVTRSDQGLYTCAASSGLMTKKNSTFVRVHEKGGGGSSPFIASVSDQHGVVYITENKNKTVVIPCLGSISNLNVSLCARYPEKRFVPDGNRISWDSKKGFTIPSYMISYAGMVFCEAKINDESYQSIMYIVVVVGYRIYDVVLSPSHGIELSVGEKLVLNCTARTELNVGIDFNWEYPSSKHQHKKLVNRDLKTQSGSEMKKFLSTLTIDGVTRSDQGLYTCAASSGRMTKKNSTFVRVHEK[human IgG1 Fc with changes not printed]
# B7: PR1122 (R1D2-R2D3-linker-R2D2-R2D3 (K278E)-Fc) (Fc fusion)
# chain: SDTGRPFVEMYSEIPEIIHMTEGRELVIPCRVTSPNITVTLKKFPLDTLIPDGKRIIWDSRKGFIISNATYKEIGLLTCEATVNGHLYKTNYLTHRQTNTIIDVVLSPSHGIELSVGEKLVLNCTARTELNVGIDFNWEYPSSKHQHKKLVNRDLKTQSGSEMKKFLSTLTIDGVTRSDQGLYTCAASSGLMTKKNSTFVRVHEKGGGGSSPFIASVSDQHGVVYITENKNKTVVIPCLGSISNLNVSLCARYPEKRFVPDGNRISWDSKKGFTIPSYMISYAGMVFCEAKINDESYQSIMYIVVVVGYRIYDVVLSPSHGIELSVGEKLVLNCTARTELNVGIDFNWEYPSSKHQHKKLVNRDLETQSGSEMKKFLSTLTIDGVTRSDQGLYTCAASSGLMTKKNSTFVRVHEK[human IgG1 Fc with changes not printed]
# B8: PR1113 (R1D2-R2D3-linker-R2D2-R2D3 (N274F)-Fc) (Fc fusion)
# chain: SDTGRPFVEMYSEIPEIIHMTEGRELVIPCRVTSPNITVTLKKFPLDTLIPDGKRIIWDSRKGFIISNATYKEIGLLTCEATVNGHLYKTNYLTHRQTNTIIDVVLSPSHGIELSVGEKLVLNCTARTELNVGIDFNWEYPSSKHQHKKLVNRDLKTQSGSEMKKFLSTLTIDGVTRSDQGLYTCAASSGLMTKKNSTFVRVHEKGGGGSSPFIASVSDQHGVVYITENKNKTVVIPCLGSISNLNVSLCARYPEKRFVPDGNRISWDSKKGFTIPSYMISYAGMVFCEAKINDESYQSIMYIVVVVGYRIYDVVLSPSHGIELSVGEKLVLNCTARTELNVGIDFNWEYPSSKHQHKKLVFRDLKTQSGSEMKKFLSTLTIDGVTRSDQGLYTCAASSGLMTKKNSTFVRVHEK[human IgG1 Fc with changes not printed]
# B9: PR1125 (R1D2-R2D3-linker-R2D2-R2D3 (E284H)-Fc) (Fc fusion)
# chain: SDTGRPFVEMYSEIPEIIHMTEGRELVIPCRVTSPNITVTLKKFPLDTLIPDGKRIIWDSRKGFIISNATYKEIGLLTCEATVNGHLYKTNYLTHRQTNTIIDVVLSPSHGIELSVGEKLVLNCTARTELNVGIDFNWEYPSSKHQHKKLVNRDLKTQSGSEMKKFLSTLTIDGVTRSDQGLYTCAASSGLMTKKNSTFVRVHEKGGGGSSPFIASVSDQHGVVYITENKNKTVVIPCLGSISNLNVSLCARYPEKRFVPDGNRISWDSKKGFTIPSYMISYAGMVFCEAKINDESYQSIMYIVVVVGYRIYDVVLSPSHGIELSVGEKLVLNCTARTELNVGIDFNWEYPSSKHQHKKLVNRDLKTQSGSHMKKFLSTLTIDGVTRSDQGLYTCAASSGLMTKKNSTFVRVHEK[human IgG1 Fc with changes not printed]
# B10: PR1165 (R1D2-R2D3-linker-R2D2(C162I)-R2D3-Fc) (Fc fusion)
# chain: SDTGRPFVEMYSEIPEIIHMTEGRELVIPCRVTSPNITVTLKKFPLDTLIPDGKRIIWDSRKGFIISNATYKEIGLLTCEATVNGHLYKTNYLTHRQTNTIIDVVLSPSHGIELSVGEKLVLNCTARTELNVGIDFNWEYPSSKHQHKKLVNRDLKTQSGSEMKKFLSTLTIDGVTRSDQGLYTCAASSGLMTKKNSTFVRVHEKGGGGSSPFIASVSDQHGVVYITENKNKTVVIPCLGSISNLNVSLIARYPEKRFVPDGNRISWDSKKGFTIPSYMISYAGMVFCEAKINDESYQSIMYIVVVVGYRIYDVVLSPSHGIELSVGEKLVLNCTARTELNVGIDFNWEYPSSKHQHKKLVNRDLKTQSGSEMKKFLSTLTIDGVTRSDQGLYTCAASSGLMTKKNSTFVRVHEK[human IgG1 Fc with changes not printed]
# Molecular target: T1, Human VEGF-A protein
# Assay: cell-based or functional assay
row,Binder,VEGF-A IC50; VEGF-A-induced NFAT-RE-luc2P/KDR HEK293 reporter gene expression
1,B1,2.71 nM
2,B2,0.45 nM
3,B3,0.54 nM
4,B4,0.36 nM
5,B5,0.5 nM
6,B6,0.14 nM
7,B7,0.36 nM
8,B8,0.49 nM
9,B9,0.23 nM
10,B10,0.92 nM
